± gives the standard deviation. The full ranking holds about 3,000 sequences; the median of “pre-steady-state target cleavage rate” is about 0.0079, and the highest 2% start at about 0.2. This is a selection; strong and weak results do not stand in their true shares.
The sequences below were run on MILI (PIWIL2) piRISC loaded with piRNA #2 (26 nt) (assay: pre-steady-state target cleavage rate (min^-1); MIWI and MILI are mouse PIWI proteins and EfPiwi is from a freshwater sponge; tags in brackets are library labels; higher = faster piRNA-guided slicing of the target). Details: guide: piRNA #2 5'p-UUAGGUAACCCAGUAGAUCCAGAGGA; auxiliary factor: 500 nM mouse GTSF1.
In short: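 The method was Cleave-'n-Seq, in which uncleaved targets from a transcribed, DNA-blocked target RNA library were sequenced after exposure to active affinity-purified piRISC carrying one synthetic guide, with or without GTSF1 partner protein. Reactions contained 0.1 nM library, 1 nM piRISC and, where present, 500 nM GTSF1 in HEPES–potassium acetate buffer at 33 °C for 0–8 or 0–960 min. Reads were normalised to depth and to weakly complementary targets, three trials were pooled, and k3 was capped at 0.0001 min^-1. The pre-steady-state cleavage rate came from a burst-and-steady-state fit.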
For CUUAAGCUCUCGAUCUACUGGGUUUCCUAA, the “pre-steady-state target cleavage rate” value was 0.0761 ± 0.025.
In the case of CUUAACCUCUGGAACUACUGGGAUACCUAA, the “pre-steady-state target cleavage rate” value is reported as 0.0422 ± 0.022.
In the case of CUUAACCUCUGGUUCUAGUGGGUUACCUAA, the “pre-steady-state target cleavage rate” value is reported as 0.068 ± 0.014.
For CUUAUCCUCUGGAUCUACUGGUUACCUAA, the “pre-steady-state target cleavage rate” value was 0.0077 ± 0.0031.
In the case of CUUAACCUGUGGAUCUACUGGGUUACCAAA, the “pre-steady-state target cleavage rate” value is reported as 0.0256 ± 0.0095.
With CUUAACCUCUGGAUCUAUUGGGUUACCUAA the “pre-steady-state target cleavage rate” value was 0.0785 ± 0.023.
In the case of CUUAAGGUGUGGAUCUACUGCGUUACCUAA, the “pre-steady-state target cleavage rate” value is reported as 0.00593 ± 0.0047.
CUUAAGCUCUGGAUCUAGCUGGGUUACCUAA was tested, and the “pre-steady-state target cleavage rate” value was < 0.0001.
In the case of CUUAACCUCUGGUUCUACAGGGUUACCUAA, the “pre-steady-state target cleavage rate” value is reported as 0.0948 ± 0.019.
With CUUAAGCUCUGGAACUACAGGGUUACCUAA the “pre-steady-state target cleavage rate” value was 0.0677 ± 0.012.
In the case of CUUAUCCUCUGGAUGUACUGGGAUACCUAA, the “pre-steady-state target cleavage rate” value is reported as 0.0275 ± 0.0095.
With CUUAAGCUGUGGAUCUACUGGGUUAGCUAA the “pre-steady-state target cleavage rate” value was 0.00876 ± 0.0053.
With CUUAAGGAGUGGAACUACUGGGUUACCUAA the “pre-steady-state target cleavage rate” value was 0.0108 ± 0.0086.
CUUAAGGUCUGGAUGUAGUGGGUUACCUAA was tested, and the “pre-steady-state target cleavage rate” value was 0.0314 ± 0.01.
For CUUAUCCUCUGGAUCUAGUGGGAUACCUAA, the “pre-steady-state target cleavage rate” value was 0.0125 ± 0.0033.
In the case of CUUAUCCUCUGGUUCUACUGGGUUAGCUAA, the “pre-steady-state target cleavage rate” value is reported as 0.235 ± 0.069.
For CUUAACCUCUGGAUGUACUGGGUUACCUAA, the “pre-steady-state target cleavage rate” value was 0.136 ± 0.026.
In the case of CUUAAGGAGAGGAUCUACUGGGUUUCCUAA, the “pre-steady-state target cleavage rate” value is reported as 0.00642 ± 0.0028.
With CUUAAGGUCUGGAUCUACUGGGUUACCAUAA the “pre-steady-state target cleavage rate” value was 0.0725 ± 0.019.
In the case of CUUAAGCUCUGGAUCUACUGCGUUACCUAA, the “pre-steady-state target cleavage rate” value is reported as 0.0137 ± 0.0059.
For CUUAUCCUCUGGAUCAACUGGGUUAGCUAA, the “pre-steady-state target cleavage rate” value was 0.0291 ± 0.0083.
With CUUAACCUCAGGAUCUACUGGGUUUCCUAA the “pre-steady-state target cleavage rate” value was 0.069 ± 0.022.
For CUUAAGGAGUGGAGCUACUGGGUUACCUAA, the “pre-steady-state target cleavage rate” value was 0.0203 ± 0.0089.
In the case of CUUAUGGUCUGGAUCUACUGGGUUACCUAA, the “pre-steady-state target cleavage rate” value is reported as 0.109 ± 0.016.
For CUUAUCCUCUGGUUCUACUGGGUUACCAAA, the “pre-steady-state target cleavage rate” value was 0.453 ± 0.15.
In the case of CUUAAGCUCUGAGAUCUACUGGGUUACCUAA, the “pre-steady-state target cleavage rate” value is reported as 0.0935 ± 0.021.
In the case of CUUAAGCUCUGGAUCUACUGUGUUACCUAA, the “pre-steady-state target cleavage rate” value is reported as 0.0309 ± 0.0074.
With CUUAACCUCUGGACUCUACUGGGUUACCUAA the “pre-steady-state target cleavage rate” value was 0.0674 ± 0.018.
For CUUAUCCACUGGUUCUACUGGGUUACCUAA, the “pre-steady-state target cleavage rate” value was 0.129 ± 0.024.
For CUUAUCCACUGGAUCUACUGGGUUACCUUA, the “pre-steady-state target cleavage rate” value was 0.0763 ± 0.011.
In the case of CUUAAGGACUGGAUCUACUGGGUUAGCCUAA, the “pre-steady-state target cleavage rate” value is reported as 0.0133 ± 0.013.
For CUUAAGGAGUGGAUCUACACCGUUACCUAA, the “pre-steady-state target cleavage rate” value was 0.00369 ± 0.0031.
In the case of CUUAAGGUCUGGAUCUACUGGGUUAACUAA, the “pre-steady-state target cleavage rate” value is reported as 0.0581 ± 0.018.
In the case of CUUAAGCGUCUGGAUCUACUGGGUUACCUAA, the “pre-steady-state target cleavage rate” value is reported as 0.0999 ± 0.021.
CUUAAGGAGACCAUCUACUGGGUUACUAA was tested, and the “pre-steady-state target cleavage rate” value was < 0.0001.
CUUAACCUCUGGAUCUACUGGGUUAACCUAA was tested, and the “pre-steady-state target cleavage rate” value was 0.115 ± 0.024.
CUUAAGCUCUGGAUCUACCGGGUUACCUAA was tested, and the “pre-steady-state target cleavage rate” value was 0.0213 ± 0.0061.
In the case of CUUAAGCUCUGGAUCUAGUGGGUUAGCUAA, the “pre-steady-state target cleavage rate” value is reported as 0.0124 ± 0.004.
For CUUAACCUCUGGAUCUACUGGGUUACCUA, the “pre-steady-state target cleavage rate” value was 0.14 ± 0.029.
In the case of CUUAACCUCUGGAAGUACUGGGUUACCUAA, the “pre-steady-state target cleavage rate” value is reported as 0.114 ± 0.019.
With CUUAUCCUCUGGAUCUACUGAGGUUACCUAA the “pre-steady-state target cleavage rate” value was 0.0102 ± 0.006.
With CUUAUGCUCUGGAUCUUCUGGGUUACCUAA the “pre-steady-state target cleavage rate” value was 0.0427 ± 0.0095.
CUUAAGGUCUGGAUGUACAGGGUUACCUAA was tested, and the “pre-steady-state target cleavage rate” value was 0.043 ± 0.012.
In the case of CUUAUCCUCUGGAUCUACUGGGUUACUCUAA, the “pre-steady-state target cleavage rate” value is reported as 0.0694 ± 0.015.
With CUUAAGCGCUGGAUCUACUGGGUUACCUAA the “pre-steady-state target cleavage rate” value was 0.0946 ± 0.019.
In the case of CUUAACCUCUGGAUCUACUGGGUUACUUAA, the “pre-steady-state target cleavage rate” value is reported as 0.101 ± 0.022.
CUUAAGGAGACCUAGUACUGGGAUACCUUA was tested, and the “pre-steady-state target cleavage rate” value was < 0.0001.
CUUAAGGACUGCAUCUAGUGGGUUACCUAA was tested, and the “pre-steady-state target cleavage rate” value was 0.0123 ± 0.0063.
For CUUAUCCUCUGGAUACUACUGGGUUACCUAA, the “pre-steady-state target cleavage rate” value was 0.0816 ± 0.019.
For CUUAUCCUCUGGAUCUACUGGGUUAACUAA, the “pre-steady-state target cleavage rate” value was 0.115 ± 0.029.
With CUUAAGCUCAGGAUCUACUGGGAUACCUAA the “pre-steady-state target cleavage rate” value was 0.0197 ± 0.0065.
CUUAAGGUCUGGUUCUUCUGGGUUACCUAA was tested, and the “pre-steady-state target cleavage rate” value was 0.0474 ± 0.013.
In the case of CUUAAGCUCUGGAACUACUGGGUUACCUUA, the “pre-steady-state target cleavage rate” value is reported as 0.0686 ± 0.021.
With CUUAACCUCUGGAUCUACUGGGUCUACCUAA the “pre-steady-state target cleavage rate” value was 0.104 ± 0.024.
CUUAAGGAGUGGUUCUACUGGGUUACCUUA was tested, and the “pre-steady-state target cleavage rate” value was 0.0136 ± 0.0069.
In the case of CUUAACCCUCUGGAUCUACUGGGUUACCUAA, the “pre-steady-state target cleavage rate” value is reported as 0.0821 ± 0.022.
For CUUAAGCUCUGGAUCUUCUGGGUUACCUUA, the “pre-steady-state target cleavage rate” value was 0.0449 ± 0.013.
In the case of CUUAAGCUCUGCAUCUACUGGGUUACGUAA, the “pre-steady-state target cleavage rate” value is reported as 0.0499 ± 0.016.
With CUUAUCCUCUGGAUCUACUGGGUCUACCUAA the “pre-steady-state target cleavage rate” value was 0.0768 ± 0.013.
CUUAAGCUCUGGAUCUACUGGGUUACCUCAA was tested, and the “pre-steady-state target cleavage rate” value was 0.0468 ± 0.011.
For CUUAAGGUCACGAUCUACUGGGUUACCUAA, the “pre-steady-state target cleavage rate” value was 0.00915 ± 0.0045.
With CUUAAGCUCUGCUACUACUGGGUUACCUAA the “pre-steady-state target cleavage rate” value was 0.0262 ± 0.0086.
In the case of CUUAAGGUCUGGAAGUACUGGGUUACCUAA, the “pre-steady-state target cleavage rate” value is reported as 0.0627 ± 0.018.
With CUUAAGGACUGGGAUCUACUGGGUUACCUAA the “pre-steady-state target cleavage rate” value was 0.0184 ± 0.013.
With CUUAAGGACUGGAUCUACUGGGUUACCUAAA the “pre-steady-state target cleavage rate” value was 0.0459 ± 0.021.
With CUUAAGCUCUGGAACUACUGGGUAACCUAA the “pre-steady-state target cleavage rate” value was 0.0205 ± 0.0095.
In the case of CUUAUGCUCUGGAUCAACUGGGUUACCUAA, the “pre-steady-state target cleavage rate” value is reported as 0.0439 ± 0.0094.
In the case of CUUAAGCUGUGGAUCUAGUGGGUUACCUAA, the “pre-steady-state target cleavage rate” value is reported as 0.0526 ± 0.014.
For CUUAACCUCAGGUUCUACUGGGUUACCUAA, the “pre-steady-state target cleavage rate” value was 0.073 ± 0.019.
CUUAACCUCUGGAAUCUACUGGGUUACCUAA was tested, and the “pre-steady-state target cleavage rate” value was 0.101 ± 0.024.
For CUUAAGGUCUGCAUCUACUGGGUUACGUAA, the “pre-steady-state target cleavage rate” value was 0.0206 ± 0.01.

Source: the supplement of paper PMC10338343
